Source: publication PMC4336329 (PLoS ONE, 2015)
Hit rate of the full screen: of about 310,000 compounds, about 14,000 (4.5%) showed an effect of 50% or more. Effects have a minus sign here. The list shows a part of the results.

biological target: human ether-à-go-go-related gene (hERG) potassium channel (human, UniProt Q12809); experiment: primary screen, population patch clamp on CHO cells stably expressing hERG
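Also: peak tail current of the secondary pulse compared with the same well before compound.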

Chain of human ether-à-go-go-related gene (hERG) potassium channel (Q12809 whole entry, looked up): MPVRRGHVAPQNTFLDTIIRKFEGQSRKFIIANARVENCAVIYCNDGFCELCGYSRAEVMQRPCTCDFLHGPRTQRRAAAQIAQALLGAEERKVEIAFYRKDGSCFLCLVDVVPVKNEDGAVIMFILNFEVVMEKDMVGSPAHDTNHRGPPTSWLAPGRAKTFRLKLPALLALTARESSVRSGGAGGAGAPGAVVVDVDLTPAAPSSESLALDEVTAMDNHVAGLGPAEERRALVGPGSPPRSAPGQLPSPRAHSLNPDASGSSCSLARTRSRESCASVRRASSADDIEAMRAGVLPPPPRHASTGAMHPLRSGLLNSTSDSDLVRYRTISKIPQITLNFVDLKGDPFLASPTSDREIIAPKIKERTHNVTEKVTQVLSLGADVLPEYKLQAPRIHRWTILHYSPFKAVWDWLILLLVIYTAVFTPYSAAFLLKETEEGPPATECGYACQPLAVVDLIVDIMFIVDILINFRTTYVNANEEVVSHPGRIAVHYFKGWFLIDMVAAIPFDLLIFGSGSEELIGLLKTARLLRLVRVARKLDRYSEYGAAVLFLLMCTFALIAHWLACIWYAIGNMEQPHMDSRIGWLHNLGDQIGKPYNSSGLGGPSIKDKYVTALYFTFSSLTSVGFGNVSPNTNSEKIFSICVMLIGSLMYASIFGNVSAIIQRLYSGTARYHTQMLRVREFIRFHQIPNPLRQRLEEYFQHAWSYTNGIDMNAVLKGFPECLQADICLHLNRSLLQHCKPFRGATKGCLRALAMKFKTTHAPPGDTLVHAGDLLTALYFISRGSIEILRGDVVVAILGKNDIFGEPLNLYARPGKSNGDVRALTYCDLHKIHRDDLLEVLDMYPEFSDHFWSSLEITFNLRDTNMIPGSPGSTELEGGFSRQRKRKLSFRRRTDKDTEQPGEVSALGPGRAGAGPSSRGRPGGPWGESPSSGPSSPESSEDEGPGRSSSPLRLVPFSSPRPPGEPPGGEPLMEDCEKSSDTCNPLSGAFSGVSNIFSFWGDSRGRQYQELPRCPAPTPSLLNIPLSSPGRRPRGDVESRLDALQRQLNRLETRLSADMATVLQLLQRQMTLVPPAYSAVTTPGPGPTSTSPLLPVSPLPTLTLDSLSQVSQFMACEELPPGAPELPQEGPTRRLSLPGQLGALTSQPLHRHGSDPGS

First: CCOC(=O)[C@H]1NN=C(C(=O)OC)[C@@H]1c1ccccc1
Second: CCOC(=O)c1c(C)nc2c(c1-c1ccccc1)C(=O)CCC2
The “hERG current change (%, negative = inhibition) at 10uM” value of the first is higher: -1.08% for the first, -10.6% for the second.

First: COc1cccc(CNC(=O)Cc2ccc(-n3c(=O)[nH]c4ccccc4c3=O)cc2)c1
Second: COc1cc(NC(=O)c2ccc(C)cc2)ccc1NC(=O)c1cc2ccccc2o1
The “hERG current change (%, negative = inhibition) at 10uM” value of the first is lower: 10.1% for the first, 15.2% for the second.

Compared with `O=c1[nH]c2ccccc2s1`, `Nc1cccc2nc3ccccc3cc12` is lower in “hERG current change (%, negative = inhibition) at 10uM” value: 11.4% for the first, -24.7% for the second.

Going from `CN(C)CCCN(C(=O)COc1ccccc1)c1nc2c(Cl)cccc2s1.Cl` to `O=C(C1CC1)N(Cc1ccco1)c1nc(-c2ccccc2)cs1`, the “hERG current change (%, negative = inhibition) at 10uM” value rises from -66.9% to -8.62%.

Compared with `Cc1cccc(N(C)S(=O)(=O)c2nnc(NC(=O)c3ccco3)s2)c1`, `COc1cc(NC(=O)c2ccco2)c(OC)cc1NC(=O)CCC(=O)Nc1cc(C)cc(C)c1` is lower in “hERG current change (%, negative = inhibition) at 10uM” value: -0.361% for the first, -9.18% for the second.

First: O=C(Nc1nncs1)c1cccnc1Cl
Second: Cc1ccc(C)c(C(=O)c2ccccc2NC(=O)c2ccccn2)c1
The “hERG current change (%, negative = inhibition) at 10uM” value of the first is higher: 17.7% for the first, -6.35% for the second.

First: O=c1cc(O)c(-c2ccc(Cl)cc2)c(Cl)[nH]1
Second: CCO/C=C1\SC(=S)N(c2ccc(Cl)cc2)C1=O
The “hERG current change (%, negative = inhibition) at 10uM” value of the first is lower: -0.739% for the first, 18.1% for the second.

First: CCc1nnc(NC(=O)CSc2nnc(-c3ccc(S(=O)(=O)N(CC)CC)cc3)n2CC)s1
Second: CCc1nnc(NC(=O)CN2C(=O)N(C)C3(CCCCC3)C2=O)s1
The “hERG current change (%, negative = inhibition) at 10uM” value of the first is higher: 6.02% for the first, -0.055% for the second.

Going from `CC(C)c1ccc(SCc2noc(C(=O)NCC3CCCO3)c2C(=O)O)cc1` (stereo not drawn) to `CCc1noc(C)c1C(=O)Nc1cc(Cl)ccc1N1CCCC1`, the “hERG current change (%, negative = inhibition) at 10uM” value falls from 4.92% to 4.72%.

First: O=C(Nc1ccc(F)cc1)c1c(Cl)nc2ccccn12
Second: Cn1cnnc1SC(C(=O)Nc1ccc(F)cc1)c1ccccc1 (stereo not drawn)
The “hERG current change (%, negative = inhibition) at 10uM” value of the first is lower: -34.9% for the first, -24.8% for the second.

First: CCOc1ccc2oc(C(=O)O)c(C)c2c1
Second: Cc1ccc(-c2nc(C)c(C(=O)O)s2)cc1
The “hERG current change (%, negative = inhibition) at 10uM” value of the first is lower: 4.62% for the first, 22.5% for the second.

Compared with `CC(=O)Nc1ccc(CN2CCCC(C(=O)c3ccc(C(F)(F)F)cc3)C2)cc1` (stereo not drawn), `CC(=O)Nc1ccc(C(=O)Nc2ccc(S(=O)(=O)Nc3nccc(C)n3)cc2)cc1` is higher in “hERG current change (%, negative = inhibition) at 10uM” value: -77.3% for the first, 15.9% for the second.

Going from `COc1ccc(NC(=O)Cc2nnc(SCC(=O)NC3CCCCC3)n2C)cc1` to `COC(=O)Cc1ccc(NC(=S)N2CCCC(CO)C2)cc1` (stereo not drawn), the “hERG current change (%, negative = inhibition) at 10uM” value falls from 9.92% to -63.2%.

Compared with `COc1ccc(OCC(=O)Nc2ccc3c(c2)nc2n3CCSC2)cc1`, `COc1cccc(NC(=O)CN2CCN(c3ccccc3F)CC2)c1` is lower in “hERG current change (%, negative = inhibition) at 10uM” value: -3.43% for the first, -9.18% for the second.

Compared with `CCCc1cc(=O)oc2cc(OCC(=O)NC(Cc3c[nH]c4ccc(O)cc34)C(=O)O)c(Cl)cc12` (stereo not drawn), `O=C(CCc1c[nH]c2ccccc12)NCc1ccco1` is higher in “hERG current change (%, negative = inhibition) at 10uM” value: 13% for the first, 32.4% for the second.

Going from `COCc1cc(C)nc(SCC[N+](C)(C)CC(=O)c2ccccc2)c1C#N.[Br-]` to `COc1ccc(/C=N/NC(=O)c2ccc(CSc3nc(C)cc(C)n3)cc2)c(OC)c1OC`, the “hERG current change (%, negative = inhibition) at 10uM” value falls from 34% to -7.96%.

First: FC(F)(F)c1nc2ccccc2n2c(-c3c(Cl)cccc3Cl)nnc12
Second: N#Cc1c(N)n(CCc2ccc(F)cc2)c2nc3ccccc3nc12
The “hERG current change (%, negative = inhibition) at 10uM” value of the first is lower: -7.37% for the first, 27.1% for the second.

Going from `c1ccc(-n2nnnc2CN2CCOCC2)cc1` to `O=C(Cn1cnnn1)NC1CCCN(Cc2ccccc2F)C1` (stereo not drawn), the “hERG current change (%, negative = inhibition) at 10uM” value falls from 14.8% to 11.5%.

Going from `COc1ccccc1NS(=O)(=O)c1ccc(C)c(C(=O)N2CCCC2)c1` to `Cc1cc(C(=O)Nc2ccccc2C(=O)N2CCCCC2)ccc1[N+](=O)[O-]`, the “hERG current change (%, negative = inhibition) at 10uM” value falls from 2.31% to -11.9%.

Compared with `CS(=O)(=O)c1ccc2nc(NC(=O)CN3C(=O)NC4(CCCC4)C3=O)sc2c1`, `O=C(CN1C(=O)NC2(CCc3ccccc3C2)C1=O)Nc1ccc(F)cc1` (stereo not drawn) is lower in “hERG current change (%, negative = inhibition) at 10uM” value: -4.88% for the first, -5.75% for the second.

Going from `CCc1noc(C)c1C(=O)Nc1nc(-c2ccc(F)cc2)c(C)s1` to `CCOC(=O)c1c(NC(=O)Cn2cnc3scc(-c4ccc(C)cc4)c3c2=O)sc(C)c1C`, the “hERG current change (%, negative = inhibition) at 10uM” value falls from 7.05% to -14.5%.

First: CC(=O)c1ccccc1NC(=O)C1C2CCC(O2)C1C(=O)O (stereo not drawn)
Second: O=C(NC(Cc1ccccc1)C(=O)O)C1CCCCC1 (stereo not drawn)
The “hERG current change (%, negative = inhibition) at 10uM” value of the first is higher: 8.81% for the first, 2.22% for the second.

First: CCC(C(=O)NC1CCCC1)N(Cc1ccco1)C(=O)Cn1nnc(-c2ccc(C)cc2)n1 (stereo not drawn)
Second: CC(=O)C1=C(O)C(=O)N(Cc2ccco2)C1c1cccc(F)c1 (stereo not drawn)
The “hERG current change (%, negative = inhibition) at 10uM” value of the first is lower: -9.13% for the first, 19.1% for the second.

First: O=C(CSc1n[nH]c(=O)n1C1CC1)NCc1ccccc1Cl
Second: O=C(CSc1nc(-c2ccccc2Cl)ns1)NCc1ccc2c(c1)OCO2
The “hERG current change (%, negative = inhibition) at 10uM” value of the first is higher: 21% for the first, 7.69% for the second.

Going from `Cc1ccc(CN2C(=O)CSC2c2ccccc2F)cc1` (stereo not drawn) to `CCc1ccc(N2C(=O)NC(=O)/C(=C/c3cccn3CCOc3ccc(C)cc3)C2=O)cc1`, the “hERG current change (%, negative = inhibition) at 10uM” value rises from 3.9% to 5.37%.

First: Cc1ccc(N(CC(=O)NC(C)(C)C)C(=O)CCC(=O)Nc2nccs2)cc1C
Second: COc1ccc(/C=C(\C)C(=O)c2c(C)cc(C)[nH]c2=O)cc1
The “hERG current change (%, negative = inhibition) at 10uM” value of the first is lower: -1.07% for the first, 12.9% for the second.

First: O=[N+]([O-])c1cc(C(F)(F)F)ccc1SCC(O)CO (stereo not drawn)
Second: O=C(Nc1ccccc1C(F)(F)F)N1CCCCCC1
The “hERG current change (%, negative = inhibition) at 10uM” value of the first is higher: 9.6% for the first, 8.71% for the second.

Going from `COc1cc(/C=N\NC(=O)c2ccc(-c3ccccc3)cc2)cc(OC)c1O` to `COc1ccc(-c2cc(-c3ccc(Br)cc3)nc3ncnn23)cc1OC`, the “hERG current change (%, negative = inhibition) at 10uM” value falls from -3.44% to -34.4%.

First: O=C(COC(=O)CNC(=O)c1ccccc1)Nc1ccc(S(=O)(=O)N2CCOCC2)cc1
Second: O=C(CN1CCN(S(=O)(=O)c2ccccc2)CC1)Nc1ccccc1C(=O)NC1CC1
The “hERG current change (%, negative = inhibition) at 10uM” value of the first is higher: 11.8% for the first, -27.1% for the second.

Going from `Cc1cc(C)n2nc(CC(=O)NC3CCCC(C)C3C)nc2n1` (stereo not drawn) to `Cc1cc(C)n2nc(S(=O)(=O)Nc3c(Cl)cccc3Cl)nc2n1`, the “hERG current change (%, negative = inhibition) at 10uM” value rises from 1.78% to 7.51%.

First: CSc1ccc(/C=N/n2c(C)cc(C)cc2=O)cc1
Second: CC(=O)N1N=C(C)CC1c1ccc(O)cc1 (stereo not drawn)
The “hERG current change (%, negative = inhibition) at 10uM” value of the first is lower: -2.09% for the first, 15.2% for the second.

First: C=CCN1C(=O)C2(C(C(=O)OCC)=C(N)Oc3c2c(=O)oc2ccccc32)c2ccccc21 (stereo not drawn)
Second: Cc1c(NC(=O)CN2C(=O)NC(C)(c3ccccc3Cl)C2=O)c(=O)n(-c2ccccc2)n1C (stereo not drawn)
The “hERG current change (%, negative = inhibition) at 10uM” value of the first is higher: 21.5% for the first, 8.24% for the second.

Compared with `Cn1c(CCN2CCCCC2)nc2cc(NC(=O)Nc3ccccc3)ccc21`, `O=C(Nc1ccc2snnc2c1)N1CCCCC1` is higher in “hERG current change (%, negative = inhibition) at 10uM” value: -28% for the first, 11.9% for the second.

Compared with `CCCCn1c(N)c(N(CCC(C)C)C(=O)CSc2nnc(C)s2)c(=O)[nH]c1=O`, `COCCn1c(=O)[nH]c(=O)c2cc(C(=O)c3cc(OC)ccc3O)cnc21` is higher in “hERG current change (%, negative = inhibition) at 10uM” value: 0.187% for the first, 5.69% for the second.

Going from `Cc1ccc(Cl)cc1NC(=O)C1CCN(S(C)(=O)=O)CC1` to `COc1ccc(OC)c(S(=O)(=O)N2CCC(C(=O)NC(C)c3ccccc3)CC2)c1` (stereo not drawn), the “hERG current change (%, negative = inhibition) at 10uM” value falls from 18.7% to -17.6%.

Going from `O=C(COc1ccc2ccc(=O)oc2c1)N1CC[C@@]2(O)CCCC[C@H]2C1` to `CCCN(C(=O)c1ccc(S(=O)(=O)N2CCCC2)cc1)C1CCS(=O)(=O)C1` (stereo not drawn), the “hERG current change (%, negative = inhibition) at 10uM” value falls from 8.39% to 7.16%.

Going from `O=S(=O)(c1ccc(F)cc1)N1CCN(c2ncnc3c2cnn3-c2ccccc2)CC1` to `CCn1c(SCC(=O)N2CCN(c3ccccc3)CC2)nnc1-c1cc2cc(Cl)ccc2o1`, the “hERG current change (%, negative = inhibition) at 10uM” value falls from 10.2% to -9.93%.

First: COc1cccc(N2CCN(C(=O)CCC(=O)N3CCOc4ccc(C)cc43)CC2)c1
Second: CN1CCN(c2ccc(Cl)cc2NC(=O)c2ccc(S(=O)(=O)N(C)C)cc2)CC1
The “hERG current change (%, negative = inhibition) at 10uM” value of the first is lower: -30.3% for the first, 1.58% for the second.

Compared with `NC(=O)N/N=C/c1ccccc1OC(=O)c1ccccc1Br`, `O=C(OCCOCCN=C1NS(=O)(=O)c2ccccc21)c1ccncc1` is lower in “hERG current change (%, negative = inhibition) at 10uM” value: 14.2% for the first, 12.2% for the second.

Going from `CC(=O)Nc1cc(C(=O)N2CCC3(CC2)OCCO3)ccc1S(=O)(=O)c1ccc(Cl)cc1` to `Cc1ccc(-c2nc(N3CCOCC3)sc2C(=O)N2CCCCC2)cc1`, the “hERG current change (%, negative = inhibition) at 10uM” value rises from -12.1% to 0.618%.

Compared with `COc1ccc(CCNC(=O)CC(C)S(=O)(=O)c2ccc3c(c2)NC(=O)CO3)cc1OC` (stereo not drawn), `O=C(Nc1cccc(Cl)c1)N1N=CCC1c1ccccc1` (stereo not drawn) is lower in “hERG current change (%, negative = inhibition) at 10uM” value: 5.88% for the first, -6.34% for the second.

Going from `Cc1nc2sc(C(c3ccco3)N3CCOCC3)c(O)n2n1` (stereo not drawn) to `Cc1cccc2cc(C#N)c(N3CCC(O)CC3)nc12`, the “hERG current change (%, negative = inhibition) at 10uM” value falls from 5.07% to 0.861%.

First: O=C(CN1CCN(S(=O)(=O)N2CCCCCC2)CC1)Nc1cc(Cl)ccc1Cl
Second: S=C(Nc1cccc(Br)c1)N1CCn2cccc2C1c1cccnc1 (stereo not drawn)
The “hERG current change (%, negative = inhibition) at 10uM” value of the first is higher: 7.48% for the first, -4.95% for the second.

For `CCOc1ccc(C2C=C(c3ccc(F)cc3)Nc3ncnn32)cc1` (stereo not drawn), the “hERG current change (%, negative = inhibition) at 10uM” value was -27.7%.
